Laboratory results reported in PubChem BioAssay AID1468 (National Center for Advancing Translational Sciences (NCATS), 2008).
Screen size: about 280,000 compounds; about 1,100 (0.39%) were called active. This list was built around the results that the source calls inconclusive (neither active nor inactive); the mix of calls is not that of the screen. Calls follow the shape of the dose curve; as a rule, active = well fitted inhibition curve with a large enough effect; inconclusive = small, poorly fitted or top-dose-only effect, or effect the other way; inactive = flat fitted curve, though single readings scatter. Potencies of inconclusive entries are left out as doubtful fits.

biological target: Microtubule-associated protein tau (Homo sapiens) (UniProt P10636); test: qHTS for Inhibitors of Tau Fibril Formation, Fluorescence Polarization; conditions: K18 P301L tau heparin fibrillization, Alexa594 FP, 6 h; series mostly up to 57.7 µM; also: nearly all actives have a fitted effect of over 55% in size
Chain of UniProt P10636 (P10636 whole entry, looked up): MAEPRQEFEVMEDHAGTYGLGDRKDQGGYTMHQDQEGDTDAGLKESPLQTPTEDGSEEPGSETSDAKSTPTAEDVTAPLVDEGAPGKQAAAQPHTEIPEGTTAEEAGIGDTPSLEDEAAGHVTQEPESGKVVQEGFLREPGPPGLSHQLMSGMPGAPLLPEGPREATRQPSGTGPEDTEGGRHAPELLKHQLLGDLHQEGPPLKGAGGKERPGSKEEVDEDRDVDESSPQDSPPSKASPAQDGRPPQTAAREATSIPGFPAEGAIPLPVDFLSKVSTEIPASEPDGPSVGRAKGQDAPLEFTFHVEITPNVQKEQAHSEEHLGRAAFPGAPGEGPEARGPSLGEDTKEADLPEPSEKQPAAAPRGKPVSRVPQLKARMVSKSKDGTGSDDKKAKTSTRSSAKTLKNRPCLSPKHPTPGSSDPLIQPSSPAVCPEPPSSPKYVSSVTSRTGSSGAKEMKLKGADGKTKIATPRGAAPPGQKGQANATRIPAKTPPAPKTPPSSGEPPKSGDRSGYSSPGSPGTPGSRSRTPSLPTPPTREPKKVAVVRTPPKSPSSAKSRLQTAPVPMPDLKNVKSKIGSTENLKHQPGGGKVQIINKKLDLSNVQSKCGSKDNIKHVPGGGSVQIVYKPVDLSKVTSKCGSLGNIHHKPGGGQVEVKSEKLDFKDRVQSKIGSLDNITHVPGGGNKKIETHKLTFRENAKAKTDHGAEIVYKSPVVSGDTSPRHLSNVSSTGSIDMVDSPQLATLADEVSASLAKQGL
Summary of the method: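 Compound effects on tau fibrillization are measured by Alexa 594 fluorescence polarization (ex 555, em 632 nm). K18 P301L tau is used at 15 uM with 0.24 uM labeled tracer, and 20 uM heparin induces aggregation over 6 hr at 37 C.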
Potency is read from the fitted curve at half-maximal effect; tags tell the direction and shape of the fitted curve.

Row | Structure (SMILES) | Potency
1 | CC(=O)c1c(C)oc(C)c1CSCc1ccc(C(=O)O)o1 | inconclusive [inhibitor, partial curve]
2 | Cc1ccc(/C(O)=C2/C(=O)C(=O)N(Cc3cccnc3)C2c2ccccn2)cc1 (stereo not given) | inactive
3 | COc1ccc2c(c1)-c1nc(/N=C/c3ccc(O)c(OC)c3)sc1CC2 | inconclusive [inhibitor, single point]
4 | CCCCN(CC)CCNc1ncnc2onc(-c3ccc(Cl)cc3)c12 | inactive
5 | N#Cc1ccc(-c2cccnc2)nc1SCc1ccc(Cl)c(Cl)c1 | inconclusive [inhibitor, single point]
6 | CC(=O)O[C@H]1CC2(C)[C@@H](C[C@@H](O)[C@H]3[C@@]4(C)CC[C@@H](O)[C@@H](C)[C@@H]4CC[C@@]32C)C1=C(CCC=C(C)C)C(=O)O (stereo not given in full) | inconclusive [inhibitor, single point]
7 | CCOC(=O)Cc1cc(-c2ccc(OC)cc2)nc2ccc3ccccc3c12 | inconclusive [inhibitor, full curve, poor fit]
8 | Cc1sc2c3ccsc3ccc2[n+]1C | active: 20 µM
9 | N#C/C(=C\C=C\c1ccccc1[N+](=O)[O-])C(=O)NC1CCCCC1 | inactive
10 | C/C(=N\NS(=O)(=O)c1ccc(Cl)cc1)c1ccc(O)cc1 | inconclusive [inhibitor, full curve, poor fit]
11 | CCOC(=O)c1ccc(CN(Cc2ccc(Br)cc2)S(=O)(=O)c2cccc(C(F)(F)F)c2)cc1 | inconclusive [inhibitor, single point]
12 | CCOc1ccc(N2CC(C(=O)NCCN3C(=O)S/C(=C\c4cccnc4)C3=O)CC2=O)cc1 (stereo not given) | inconclusive [inhibitor, partial curve]
13 | COc1ccc(C2c3c(-c4ccccc4O)n[nH]c3C(=O)N2CCc2ccccc2)cc1 (stereo not given) | inconclusive [inhibitor, single point]
14 | COC(=O)c1ccc(Cl)cc1NC(=O)Nc1nnc(N(C)Cc2ccccc2)s1 | inconclusive [inhibitor, partial curve, poor fit]
15 | COc1ccc(OC)c(CNC(=O)c2cc(-c3ccc(Cl)s3)nc3ccccc23)c1 | inconclusive [inhibitor, partial curve]
16 | Cc1cccc(C2c3[nH]c4ccccc4c3CCN2C(=O)c2cn(C)c3ccccc3c2=O)n1 (stereo not given) | inactive
17 | COc1ccccc1NC(=O)c1oc2ccccc2c1NC(=O)c1ccc(S(=O)(=O)N(C)C)cc1 | inconclusive [inhibitor, partial curve]
18 | CNC(=O)c1ccsc1NC(=O)c1sc2ccccc2c1Cl | inconclusive [inhibitor, full curve, poor fit]
19 | CCOc1ccc(OCCCN(C)C)cc1 | inactive
20 | COc1ccc(S(=O)(=O)NCCC(=O)NCc2ccccc2)cc1 | inconclusive [inhibitor, single point]
21 | CCn1c(Sc2ccc([N+](=O)[O-])cn2)nnc1-c1ccco1 | inactive
22 | Cc1ccc(N2C(=O)c3oc4cc(C)c(C)cc4c(=O)c3C2c2cccc(O)c2)nc1 (stereo not given) | inconclusive [inhibitor, full curve, poor fit]
23 | Cc1ccc(NC(=O)CSC2=C(C#N)C(c3ccc4c(c3)OCO4)CC(=O)N2)cc1C (stereo not given) | inconclusive [inhibitor, partial curve]

Row | Structure (SMILES) | Potency
24 | Cc1cccc(-c2nc(Nc3ccc(N4CCOCC4)cc3)c3ccccc3n2)c1 | inconclusive [activator, partial curve, poor fit]
25 | CC(=O)C1=C(C)NC(=O)NC1/C=C/c1ccccc1 (stereo not given) | inactive
26 | O=C1CCN(C(=O)Nc2ccccc2Cl)N1 | inconclusive [inhibitor, full curve, poor fit]
27 | Cc1cc(NC(=O)C2CCC(CNS(=O)(=O)c3ccc(Br)s3)CC2)ccc1Br (stereo not given) | inconclusive [inhibitor, partial curve]
28 | Nc1c(S(=O)(=O)c2cccs2)c2nc3ccccc3nc2n1/N=C/c1cccc(O)c1 | active: 7.94 µM
29 | CC1CCN(C(=S)c2ccc3c(c2)OCO3)CC1 | inactive
30 | Cc1cc(C)c2c(=O)n(CC(=O)N3CCC(Cc4ccccc4)CC3)sc2n1 | active: 11.2 µM
31 | CN(C)c1cccc(N=C2C=C(N3CCOCC3)CC(C)(C)C2)c1 | inactive
32 | COc1cccc(N2C(=O)C(CC(=O)Nc3ccc(F)cc3)N(CCC3=CCCCC3)C2=O)c1 (stereo not given) | inconclusive [inhibitor, single point]
33 | CCc1ccc(NC(=O)CC2C(=O)N(c3ccc(C)cc3)C(=O)N2CCc2ccncc2)cc1 (stereo not given) | inactive
34 | O=C1C2=C(Nc3ccccc3SC2c2ccc(Cl)c(Cl)c2)c2ccccc21 (stereo not given) | inconclusive [inhibitor, partial curve, poor fit]
35 | CCN(CC)S(=O)(=O)c1cccc(C(=O)Oc2cccc(NC(=O)c3cccs3)c2)c1 | inconclusive [inhibitor, partial curve]
36 | C/C(=N\NC(=O)c1ccccc1O)C1C(=O)c2ccccc2C1=O | inactive
37 | COc1ccc(C(=O)NNC(=O)CN2CCC(n3nnc4cc(F)ccc43)CC2)cc1 | inactive
38 | COc1ccc2nc(NC(=O)C(NS(=O)(=O)c3cccs3)C(C)C)sc2c1 (stereo not given) | inconclusive [inhibitor, single point]
39 | Cn1c(COc2ccc(Cl)cc2)nnc1SCc1ncc(-c2ccccc2)o1 | inactive
40 | CC(=O)N1CCN(S(=O)(=O)c2cccc(C(=O)Nc3ccc4c(c3)CCC4)c2)CC1 | inactive
41 | COc1ccc(NC(=O)CN(C)S(=O)(=O)c2ccc(C(=O)N3CCOCC3)s2)cc1 | inactive
42 | COC(=O)c1ccc(NC(=O)N2CCC(CN3CCc4ccccc4C3)CC2)cc1 | inactive
43 | COc1ccc(/C=C/C(=O)N2CCC(c3nc4ccccc4o3)CC2)cc1 | inactive
44 | CC(=O)c1c(C(C)=O)c(C)n(C(c2ccccc2)c2ccccc2)c1C | inactive
45 | Cc1ccc(S(=O)(=O)N2CCCc3cc(NC(=O)c4ccc(F)c(F)c4)ccc32)cc1 | inconclusive [inhibitor, partial curve]
